Results reported in publication PMC4980431, “Ctf4 Is a Hub in the Eukaryotic Replisome that Links Multiple CIP-Box Proteins to the CMG Helicase” (Molecular Cell, 2016).
Results are given in words; binding and its absence hold for the method and conditions named. For some of these results: In cells and extracts the contact can be indirect. Some entries that bind do so weakly or less than the wild type.

Chains of the proteins cited; added tags and fusions are not shown.
UniProt P21951: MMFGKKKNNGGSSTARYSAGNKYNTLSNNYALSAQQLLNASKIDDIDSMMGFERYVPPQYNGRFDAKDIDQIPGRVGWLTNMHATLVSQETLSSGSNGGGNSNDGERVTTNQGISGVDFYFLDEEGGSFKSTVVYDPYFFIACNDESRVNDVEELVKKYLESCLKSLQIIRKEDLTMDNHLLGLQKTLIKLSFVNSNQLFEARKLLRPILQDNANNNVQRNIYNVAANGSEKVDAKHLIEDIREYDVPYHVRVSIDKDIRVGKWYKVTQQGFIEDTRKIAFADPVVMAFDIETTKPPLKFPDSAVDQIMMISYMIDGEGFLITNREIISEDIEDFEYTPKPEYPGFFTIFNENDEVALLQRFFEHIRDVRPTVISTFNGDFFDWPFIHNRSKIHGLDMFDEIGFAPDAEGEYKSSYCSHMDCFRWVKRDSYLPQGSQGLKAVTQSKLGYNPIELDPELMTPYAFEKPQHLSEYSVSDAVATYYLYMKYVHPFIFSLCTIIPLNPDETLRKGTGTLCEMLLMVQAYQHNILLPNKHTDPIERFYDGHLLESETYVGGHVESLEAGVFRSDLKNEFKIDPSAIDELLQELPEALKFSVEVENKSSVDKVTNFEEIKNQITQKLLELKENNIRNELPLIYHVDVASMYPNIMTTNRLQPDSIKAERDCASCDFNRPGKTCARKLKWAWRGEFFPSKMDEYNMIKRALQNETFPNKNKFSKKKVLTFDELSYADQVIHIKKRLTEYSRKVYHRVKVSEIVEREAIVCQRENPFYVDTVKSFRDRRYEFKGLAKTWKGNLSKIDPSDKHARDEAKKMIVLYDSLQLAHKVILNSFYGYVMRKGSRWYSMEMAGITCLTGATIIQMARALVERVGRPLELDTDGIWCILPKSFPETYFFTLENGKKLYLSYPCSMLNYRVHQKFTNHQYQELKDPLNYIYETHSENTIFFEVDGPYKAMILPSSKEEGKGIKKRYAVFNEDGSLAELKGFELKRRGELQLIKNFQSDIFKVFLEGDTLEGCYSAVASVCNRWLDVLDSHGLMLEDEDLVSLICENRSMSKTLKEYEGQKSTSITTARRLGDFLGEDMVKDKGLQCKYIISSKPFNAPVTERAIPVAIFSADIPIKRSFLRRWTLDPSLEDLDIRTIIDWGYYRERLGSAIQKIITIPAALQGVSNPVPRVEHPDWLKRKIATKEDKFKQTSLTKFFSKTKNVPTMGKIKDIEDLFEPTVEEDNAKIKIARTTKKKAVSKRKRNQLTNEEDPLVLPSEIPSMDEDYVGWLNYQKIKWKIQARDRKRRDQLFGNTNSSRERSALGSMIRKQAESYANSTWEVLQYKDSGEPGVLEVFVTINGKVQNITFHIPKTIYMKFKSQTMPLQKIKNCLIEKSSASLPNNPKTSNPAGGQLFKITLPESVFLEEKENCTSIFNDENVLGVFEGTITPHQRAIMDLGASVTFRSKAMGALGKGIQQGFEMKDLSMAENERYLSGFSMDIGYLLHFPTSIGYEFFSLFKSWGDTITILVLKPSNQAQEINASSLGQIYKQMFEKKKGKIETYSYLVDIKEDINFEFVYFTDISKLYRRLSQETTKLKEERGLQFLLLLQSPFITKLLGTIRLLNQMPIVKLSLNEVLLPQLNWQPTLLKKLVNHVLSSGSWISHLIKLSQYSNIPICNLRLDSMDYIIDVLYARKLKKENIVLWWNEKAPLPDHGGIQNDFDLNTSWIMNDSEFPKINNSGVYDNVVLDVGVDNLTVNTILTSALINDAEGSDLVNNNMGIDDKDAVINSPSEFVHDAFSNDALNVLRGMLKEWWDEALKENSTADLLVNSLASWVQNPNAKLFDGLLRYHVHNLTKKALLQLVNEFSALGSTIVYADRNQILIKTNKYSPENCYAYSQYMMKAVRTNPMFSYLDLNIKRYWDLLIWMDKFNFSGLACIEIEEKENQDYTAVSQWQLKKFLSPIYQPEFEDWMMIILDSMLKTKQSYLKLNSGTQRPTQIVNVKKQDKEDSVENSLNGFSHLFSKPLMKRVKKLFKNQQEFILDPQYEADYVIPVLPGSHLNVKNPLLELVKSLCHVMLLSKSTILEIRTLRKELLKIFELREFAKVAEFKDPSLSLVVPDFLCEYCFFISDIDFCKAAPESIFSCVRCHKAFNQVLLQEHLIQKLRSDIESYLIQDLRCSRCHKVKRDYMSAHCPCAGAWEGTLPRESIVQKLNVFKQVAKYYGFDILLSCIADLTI

T1: wild-type Ctf4 (two-hybrid, limits not stated) (budding yeast) (UniProt Q01454)
T1 sequence: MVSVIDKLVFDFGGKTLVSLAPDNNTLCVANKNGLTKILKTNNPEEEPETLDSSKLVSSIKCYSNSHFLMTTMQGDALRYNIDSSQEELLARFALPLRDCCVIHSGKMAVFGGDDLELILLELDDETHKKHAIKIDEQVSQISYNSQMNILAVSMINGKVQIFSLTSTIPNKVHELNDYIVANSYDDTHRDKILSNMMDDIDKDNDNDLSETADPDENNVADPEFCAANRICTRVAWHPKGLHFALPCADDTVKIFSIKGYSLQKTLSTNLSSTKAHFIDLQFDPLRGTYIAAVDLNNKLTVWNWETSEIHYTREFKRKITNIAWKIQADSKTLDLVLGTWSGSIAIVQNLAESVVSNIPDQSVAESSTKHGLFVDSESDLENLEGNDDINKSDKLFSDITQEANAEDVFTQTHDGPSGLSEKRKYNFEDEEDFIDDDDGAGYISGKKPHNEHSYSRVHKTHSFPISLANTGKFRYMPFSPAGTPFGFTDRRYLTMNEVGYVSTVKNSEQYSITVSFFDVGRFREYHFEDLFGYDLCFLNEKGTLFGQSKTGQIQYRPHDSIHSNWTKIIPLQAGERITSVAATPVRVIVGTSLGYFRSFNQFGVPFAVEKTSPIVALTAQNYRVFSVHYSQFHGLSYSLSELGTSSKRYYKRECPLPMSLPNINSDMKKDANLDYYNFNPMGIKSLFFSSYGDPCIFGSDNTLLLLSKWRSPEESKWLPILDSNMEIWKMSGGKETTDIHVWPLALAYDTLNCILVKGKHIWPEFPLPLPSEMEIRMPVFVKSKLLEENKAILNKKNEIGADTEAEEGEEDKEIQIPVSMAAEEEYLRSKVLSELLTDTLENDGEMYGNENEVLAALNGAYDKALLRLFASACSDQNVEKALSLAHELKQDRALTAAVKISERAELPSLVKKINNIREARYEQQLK

T2: Ctf4 461–927 (budding yeast) (UniProt Q01454)
T2 sequence: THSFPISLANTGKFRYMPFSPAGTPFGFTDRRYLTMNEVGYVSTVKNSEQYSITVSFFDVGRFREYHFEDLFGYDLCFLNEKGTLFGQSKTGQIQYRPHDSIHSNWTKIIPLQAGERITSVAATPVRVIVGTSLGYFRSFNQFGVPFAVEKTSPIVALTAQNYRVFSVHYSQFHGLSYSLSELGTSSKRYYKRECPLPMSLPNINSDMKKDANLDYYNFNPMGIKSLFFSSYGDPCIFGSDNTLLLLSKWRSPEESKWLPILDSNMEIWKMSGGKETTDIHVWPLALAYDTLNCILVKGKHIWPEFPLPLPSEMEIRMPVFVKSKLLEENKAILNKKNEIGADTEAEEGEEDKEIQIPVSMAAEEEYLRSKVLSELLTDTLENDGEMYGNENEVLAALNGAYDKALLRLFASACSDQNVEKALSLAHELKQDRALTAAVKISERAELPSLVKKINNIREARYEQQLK

T3: Ctf4-4E (two-hybrid) (budding yeast) (UniProt Q01454)
T3 sequence: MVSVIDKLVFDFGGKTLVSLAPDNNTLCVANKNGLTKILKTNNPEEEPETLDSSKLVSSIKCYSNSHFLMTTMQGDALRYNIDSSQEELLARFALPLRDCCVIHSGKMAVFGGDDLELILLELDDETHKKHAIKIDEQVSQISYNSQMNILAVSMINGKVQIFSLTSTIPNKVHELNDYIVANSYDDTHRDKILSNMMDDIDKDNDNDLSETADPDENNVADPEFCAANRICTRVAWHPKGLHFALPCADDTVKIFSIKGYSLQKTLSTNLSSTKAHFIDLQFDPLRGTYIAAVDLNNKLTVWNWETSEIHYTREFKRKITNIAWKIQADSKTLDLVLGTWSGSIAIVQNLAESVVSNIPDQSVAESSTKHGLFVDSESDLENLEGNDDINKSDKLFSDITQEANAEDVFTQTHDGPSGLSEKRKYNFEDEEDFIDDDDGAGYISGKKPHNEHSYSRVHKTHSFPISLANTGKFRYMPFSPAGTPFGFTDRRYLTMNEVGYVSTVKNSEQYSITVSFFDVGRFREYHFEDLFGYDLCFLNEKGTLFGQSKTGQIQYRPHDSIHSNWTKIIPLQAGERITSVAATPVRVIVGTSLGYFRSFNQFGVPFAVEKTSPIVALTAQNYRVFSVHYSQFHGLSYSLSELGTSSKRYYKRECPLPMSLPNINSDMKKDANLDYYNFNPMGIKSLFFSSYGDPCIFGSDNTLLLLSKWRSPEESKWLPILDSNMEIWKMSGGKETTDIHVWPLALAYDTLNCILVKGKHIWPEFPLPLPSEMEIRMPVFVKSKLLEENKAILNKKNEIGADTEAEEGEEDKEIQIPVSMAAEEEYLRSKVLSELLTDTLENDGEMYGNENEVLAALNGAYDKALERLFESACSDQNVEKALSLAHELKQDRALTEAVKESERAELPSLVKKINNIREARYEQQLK

T4: Psf1 subunit of GINS (two-hybrid) (budding yeast) (UniProt Q12488)
T4 sequence: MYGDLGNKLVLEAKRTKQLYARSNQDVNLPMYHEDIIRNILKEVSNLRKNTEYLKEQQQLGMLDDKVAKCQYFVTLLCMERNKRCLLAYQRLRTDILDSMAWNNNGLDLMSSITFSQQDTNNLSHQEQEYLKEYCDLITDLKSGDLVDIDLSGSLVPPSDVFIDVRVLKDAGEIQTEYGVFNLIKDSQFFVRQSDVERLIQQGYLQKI

T5: Ctf4-3E (two-hybrid) (budding yeast) (UniProt Q01454)
T5 sequence: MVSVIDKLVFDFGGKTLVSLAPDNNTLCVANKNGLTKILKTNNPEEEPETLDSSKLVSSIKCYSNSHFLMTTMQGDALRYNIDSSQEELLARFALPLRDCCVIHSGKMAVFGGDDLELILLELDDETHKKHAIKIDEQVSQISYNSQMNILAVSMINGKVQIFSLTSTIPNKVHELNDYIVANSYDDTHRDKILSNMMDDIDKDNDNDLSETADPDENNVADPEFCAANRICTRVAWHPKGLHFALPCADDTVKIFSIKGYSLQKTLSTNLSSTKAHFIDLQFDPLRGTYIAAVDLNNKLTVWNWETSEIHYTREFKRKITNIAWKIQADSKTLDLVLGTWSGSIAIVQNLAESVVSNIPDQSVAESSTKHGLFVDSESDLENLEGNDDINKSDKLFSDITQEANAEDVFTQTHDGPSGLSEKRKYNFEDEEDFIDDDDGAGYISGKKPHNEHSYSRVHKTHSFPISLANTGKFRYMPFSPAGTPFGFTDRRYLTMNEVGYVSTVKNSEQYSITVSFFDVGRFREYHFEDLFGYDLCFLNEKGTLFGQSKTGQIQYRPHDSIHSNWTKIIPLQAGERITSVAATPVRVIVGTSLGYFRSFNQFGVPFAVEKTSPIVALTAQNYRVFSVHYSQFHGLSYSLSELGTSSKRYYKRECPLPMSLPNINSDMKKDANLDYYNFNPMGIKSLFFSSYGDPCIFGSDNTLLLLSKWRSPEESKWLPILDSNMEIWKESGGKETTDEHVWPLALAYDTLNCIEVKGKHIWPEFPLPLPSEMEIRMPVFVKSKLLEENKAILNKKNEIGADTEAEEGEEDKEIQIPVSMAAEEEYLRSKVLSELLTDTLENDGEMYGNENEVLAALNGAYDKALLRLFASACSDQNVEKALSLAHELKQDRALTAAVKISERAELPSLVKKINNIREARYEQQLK

T6: Tof2-ProteinA (budding yeast) (UniProt Q02208)
T6 sequence: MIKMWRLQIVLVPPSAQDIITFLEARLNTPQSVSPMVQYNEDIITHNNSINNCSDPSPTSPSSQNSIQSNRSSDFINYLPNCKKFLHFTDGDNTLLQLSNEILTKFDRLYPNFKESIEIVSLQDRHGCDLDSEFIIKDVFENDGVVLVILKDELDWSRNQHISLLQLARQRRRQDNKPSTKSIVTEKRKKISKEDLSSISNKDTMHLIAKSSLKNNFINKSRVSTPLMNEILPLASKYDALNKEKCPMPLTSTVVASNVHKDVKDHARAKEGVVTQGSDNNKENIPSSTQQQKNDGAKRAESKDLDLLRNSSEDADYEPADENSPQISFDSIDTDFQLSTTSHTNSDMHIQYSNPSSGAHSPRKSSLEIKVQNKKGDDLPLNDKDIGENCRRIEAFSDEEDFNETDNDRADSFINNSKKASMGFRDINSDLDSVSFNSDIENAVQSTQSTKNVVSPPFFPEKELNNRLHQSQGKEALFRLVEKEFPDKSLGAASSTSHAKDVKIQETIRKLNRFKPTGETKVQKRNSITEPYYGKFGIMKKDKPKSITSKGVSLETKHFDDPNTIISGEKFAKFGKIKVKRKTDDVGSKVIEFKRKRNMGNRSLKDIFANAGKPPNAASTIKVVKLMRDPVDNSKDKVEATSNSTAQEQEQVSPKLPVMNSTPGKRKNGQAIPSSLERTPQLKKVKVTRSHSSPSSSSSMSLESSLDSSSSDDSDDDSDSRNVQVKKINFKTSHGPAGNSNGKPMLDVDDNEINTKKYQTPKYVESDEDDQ


Legend:
[1] = target: T1, wild-type Ctf4 (two-hybrid, limits not stated) (budding yeast); test: two-hybrid; directed yeast two-hybrid assay, fusions to the activation and DNA-binding domains of Gal4
[2] = target: T2, Ctf4 461–927 (budding yeast); test: as above
[3] = target: T3, Ctf4-4E (two-hybrid) (budding yeast); test: as above
[4] = target: Pol2 catalytic subunit of Pol ε (two-hybrid) (budding yeast) (UniProt P21951); test: as above
[5] = target: T4, Psf1 subunit of GINS (two-hybrid) (budding yeast); test: as above
[6] = target: T5, Ctf4-3E (two-hybrid) (budding yeast); test: as above
[7] = target: T6, Tof2-ProteinA (budding yeast); test: co-IP; Tof2-ProteinA isolated on IgG beads from extracts of G1-phase and S phase cells; immunoblotting

binding [1]	binding [2]	binding [3]	binding [4]	binding [5]	binding [6]	binding [7]	Binder
binds	binds	binds	binds	binds	no binding		Dpb2 (two-hybrid) (protein, UniProt P24482 1-689) MFGSGNVLPVKIQPPLLRPLAYRVLSRKYGLSIKSDGLSALAEFVGTNIGANWRQGPATIKFLEQFAAVWKQQERGLFIDQSGVKEVIQEMKEREKVEWSHEHPIQHEENILGRTDDDENNSDDEMPIAADSSLQNVSLSSPMRQPTERDEYKQPFKPESSKALDWRDYFKVINASQQQRFSYNPHKMQFIFVPNKKQNGLGGIAGFLPDIEDKVQMFLTRYYLTNDRVMRNENFQNSDMFNPLSSMVSLQNELSNTNRQQQSSSMSITPIKNLLGRDAQNFLLLGLLNKNFKGNWSLEDPSGSVEIDISQTIPTQGHYYVPGCMVLVEGIYYSVGNKFHVTSMTLPPGERREITLETIGNLDLLGIHGISNNNFIARLDKDLKIRLHLLEKELTDHKFVILGANLFLDDLKIMTALSKILQKLNDDPPTLLIWQGSFTSVPVFASMSSRNISSSTQFKNNFDALATLLSRFDNLTENTTMIFIPGPNDLWGSMVSLGASGTLPQDPIPSAFTKKINKVCKNVVWSSNPTRIAYLSQEIVIFRDDLSGRFKRHRLEFPFNESEDVYTENDNMMSKDTDIVPIDELVKEPDQLPQKVQETRKLVKTILDQGHLSPFLDSLRPISWDLDHTLTLCPIPSTMVLCDTTSAQFDLTYNGCKVINPGSFIHNRRARYMEYVPSSKKTIQEEIYI
						binds	Ctf4 (endogenous, yeast cell extracts) (protein, UniProt Q01454 1-927) MVSVIDKLVFDFGGKTLVSLAPDNNTLCVANKNGLTKILKTNNPEEEPETLDSSKLVSSIKCYSNSHFLMTTMQGDALRYNIDSSQEELLARFALPLRDCCVIHSGKMAVFGGDDLELILLELDDETHKKHAIKIDEQVSQISYNSQMNILAVSMINGKVQIFSLTSTIPNKVHELNDYIVANSYDDTHRDKILSNMMDDIDKDNDNDLSETADPDENNVADPEFCAANRICTRVAWHPKGLHFALPCADDTVKIFSIKGYSLQKTLSTNLSSTKAHFIDLQFDPLRGTYIAAVDLNNKLTVWNWETSEIHYTREFKRKITNIAWKIQADSKTLDLVLGTWSGSIAIVQNLAESVVSNIPDQSVAESSTKHGLFVDSESDLENLEGNDDINKSDKLFSDITQEANAEDVFTQTHDGPSGLSEKRKYNFEDEEDFIDDDDGAGYISGKKPHNEHSYSRVHKTHSFPISLANTGKFRYMPFSPAGTPFGFTDRRYLTMNEVGYVSTVKNSEQYSITVSFFDVGRFREYHFEDLFGYDLCFLNEKGTLFGQSKTGQIQYRPHDSIHSNWTKIIPLQAGERITSVAATPVRVIVGTSLGYFRSFNQFGVPFAVEKTSPIVALTAQNYRVFSVHYSQFHGLSYSLSELGTSSKRYYKRECPLPMSLPNINSDMKKDANLDYYNFNPMGIKSLFFSSYGDPCIFGSDNTLLLLSKWRSPEESKWLPILDSNMEIWKMSGGKETTDIHVWPLALAYDTLNCILVKGKHIWPEFPLPLPSEMEIRMPVFVKSKLLEENKAILNKKNEIGADTEAEEGEEDKEIQIPVSMAAEEEYLRSKVLSELLTDTLENDGEMYGNENEVLAALNGAYDKALLRLFASACSDQNVEKALSLAHELKQDRALTAAVKISERAELPSLVKKINNIREARYEQQLK
